Data on one substance can be found in patent publication US20110091470A1, “ANTI-FLT3 ANTIBODIES” (IMCLONE LLC, priority 2008, published 2011).

The test has as its system FLT3 in selected human leukemia cell lines. As to conditions: BaF3-control cell line, FLT3-negative.

On to “EB10: recombinant human monoclonal antibody, full length IgG1κ targeting human FLT3; heavy chain SEQ ID NO 25, light chain SEQ ID NO 28”, for which the “binding by flow cytometry (in words)” value is “No binding”.
